Measured values taken from publication PMC4336329 (PLoS ONE, 2015).
The campaign covered roughly 310,000 compounds. About 14,000 (4.5%) showed an effect of 50% or more. The effect is printed as a negative number. The list shows a part of the results.

Molecular target: human ether-à-go-go-related gene (hERG) potassium channel (human, UniProt Q12809)
Assay: primary screen, population patch clamp on CHO cells stably expressing hERG
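Note: peak tail current of the secondary pulse compared with the same well before compound.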

human ether-à-go-go-related gene (hERG) potassium channel, sequence (Q12809 whole entry, looked up): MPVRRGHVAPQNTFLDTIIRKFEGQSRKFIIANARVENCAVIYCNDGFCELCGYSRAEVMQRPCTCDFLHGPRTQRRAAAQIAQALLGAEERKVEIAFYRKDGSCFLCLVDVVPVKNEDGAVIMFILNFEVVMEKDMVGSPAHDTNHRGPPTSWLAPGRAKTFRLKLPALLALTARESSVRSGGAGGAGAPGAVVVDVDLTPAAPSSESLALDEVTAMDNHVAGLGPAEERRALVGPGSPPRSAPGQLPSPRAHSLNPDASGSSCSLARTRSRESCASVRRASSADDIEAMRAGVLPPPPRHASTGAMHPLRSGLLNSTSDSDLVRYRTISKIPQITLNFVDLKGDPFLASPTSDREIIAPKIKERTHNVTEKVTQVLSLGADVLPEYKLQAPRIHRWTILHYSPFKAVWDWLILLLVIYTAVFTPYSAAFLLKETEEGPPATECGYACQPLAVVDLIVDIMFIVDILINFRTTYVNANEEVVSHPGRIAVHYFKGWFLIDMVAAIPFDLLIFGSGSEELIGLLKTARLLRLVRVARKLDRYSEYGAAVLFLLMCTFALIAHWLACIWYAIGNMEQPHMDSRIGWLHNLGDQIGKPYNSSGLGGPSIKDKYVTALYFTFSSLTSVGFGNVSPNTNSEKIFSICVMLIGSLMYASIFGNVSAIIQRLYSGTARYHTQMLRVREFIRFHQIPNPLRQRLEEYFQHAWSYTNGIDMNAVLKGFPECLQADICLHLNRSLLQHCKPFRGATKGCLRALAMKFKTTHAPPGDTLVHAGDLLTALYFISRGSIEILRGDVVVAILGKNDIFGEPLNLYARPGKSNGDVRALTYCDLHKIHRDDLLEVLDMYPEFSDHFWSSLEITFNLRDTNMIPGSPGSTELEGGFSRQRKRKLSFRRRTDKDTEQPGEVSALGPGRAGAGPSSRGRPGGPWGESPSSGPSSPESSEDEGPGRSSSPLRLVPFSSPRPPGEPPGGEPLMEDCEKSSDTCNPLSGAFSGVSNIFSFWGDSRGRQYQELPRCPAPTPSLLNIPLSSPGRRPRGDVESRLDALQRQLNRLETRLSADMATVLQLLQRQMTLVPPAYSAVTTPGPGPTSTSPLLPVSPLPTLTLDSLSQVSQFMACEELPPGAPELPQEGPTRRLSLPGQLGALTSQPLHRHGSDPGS

SMILES	hERG current change (%, negative = inhibition) at 10uM [%]
CSc1ccc(C(=O)C2CCCN(Cc3cccn3-c3cccnc3)C2)cc1 (stereo not shown)	-65.1
CSc1nc(-c2ccccc2)cc(C(F)(F)F)c1C#N	-0.323
COc1ccc(C2/C=C\CN(C(=O)c3ccccc3)[C@H](Cc3ccccc3)C(=O)N2Cc2ccc(F)cc2)cc1 (stereo partly shown)	17
CCc1ccc2c(c1)Sc1ccccc1CC2N1CCN(C)CC1.CS(=O)(=O)O.O (stereo not shown)	-69
CCC(C)(C)NC(=O)c1ccc2c(c1)S(=O)(=O)c1ccccc1C2=O	-16.8
CC(=O)NC12CC3CC(C)(C1)CC(NC(C)=O)(C3)C2	-11.4
Cc1ccc(NC(=O)CN(C)C(=O)COc2cc(F)ccc2[N+](=O)[O-])cc1	20.3
O=C(NCc1ccc(F)cc1)C1CCCN1C(=O)Nc1ccc(F)cc1 (stereo not shown)	-3.52
CC(C)(C)C(=O)Nc1ccc(-c2cc3cc(Cl)ccc3o2)cc1	8.12
O=C(NC(=O)c1ccc(Cl)c(Cl)c1)OC1CCS(=O)(=O)C1 (stereo not shown)	0.478
COC(=O)C1CCCN1S(=O)(=O)c1ccc([N+](=O)[O-])cc1 (stereo not shown)	11.5
CCc1noc(C)c1C(=O)N1CCCSC1=Nc1ccccc1OC	-8.77
Cc1cc(/C=C2/C(=O)NN(c3ccccc3)C2=O)c(C)n1-c1cccc(O)c1	3.64
CCC(=O)c1ccc(N2CCC(C)CC2)c(F)c1	5.15
O=C1C2C3C=CC(C4CC34)C2C(=O)N1/N=C/c1ccc(-c2ccccc2[N+](=O)[O-])o1 (stereo not shown)	-49.8
O=C(c1ccco1)N1CCN(Cc2nnc(-c3ccccc3F)o2)CC1	9.67
CCCC(=O)C1=C(SCC)CC(C)(C)C(C(=O)OC)C1=O (stereo not shown)	-11.6
CCOC(=O)c1cc([N+](=O)[O-])sc1N	2.1
Cc1nn(C)cc1C1Nc2ccccc2C(=O)N1O (stereo not shown)	22.6
COCc1cc(SC2CCCCC2)nc(C)n1	0.767
COc1ccc(NC(=O)c2cn(CCC#N)nc2-c2cccs2)cc1	-11.3
CC(C)(C)c1ccccc1NC(=S)NC1CCCC1	1.41

SMILES	hERG current change (%, negative = inhibition) at 10uM [%]
CCC(C)c1ccc(NC(=O)CSc2nncn2N)cc1 (stereo not shown)	-27.5
Cc1cccc(NC(=O)CCN2C(=O)C3C4CCC(C4)C3C2=O)c1C (stereo not shown)	0.845
Cc1cc(NC(=O)c2ccc(NC(=O)C3CCCO3)cc2)ccc1Br (stereo not shown)	8.57
CCOC(=O)N1CCN(c2nc3c(C)cccn3c(=O)c2C=O)CC1	-9.2
COC(=O)C(=Cc1ccc(OCc2ccc([N+](=O)[O-])cc2)c(OC)c1)C(=O)OC	16.1
COc1ccc(C2(C(=O)Nc3ccc(C(=O)O)cc3)CCOCC2)cc1	9.95
Cc1cccc2nc(-c3ccco3)c(Nc3ccc4c(c3)OCCO4)n12	3.98
O=C(Nc1ccccc1)Nc1n[nH]c2nnc(-c3ccccc3)c(-c3ccccc3)c12	-13.4
O=C(O)c1cc(NN=C2CCN(Cc3ccccc3)CC2)ccc1Cl	3.42
CC(C)(O)C(=O)NN(C(=O)c1ccccc1)c1ccc2ccccc2c1	6.71
CCc1cc(C(=O)Nc2cc(S(=O)(=O)N(C)C)ccc2C)sc1C	-16.9
O=C(CCCCCNC(=O)c1ccccc1)C[N+](=O)[O-]	10.8
O=C(NNC(=O)c1cc(Br)c(Br)s1)c1ccncc1	-3.41
CCN(CC)CCn1cnc2c1c(=O)n(CCOC(=O)c1cc(OC)c(OC)c(OC)c1)c(=O)n2C.Cl	-60.3
CCc1cccc2c(/C=N/NC(=O)c3cccc(S(=O)(=O)Nc4ccccc4Cl)c3)c[nH]c12	14.6
O=c1cc(NC2CCCCCC2)[nH]c(=O)[nH]1	4.69
O=C(NCc1ccccc1)NC12CC3CC(CC(C3)C1)C2	9.64
COc1cccc(Nc2nc(-c3cccs3)nc3ccccc23)c1	9.19
COc1ccc(NC(=O)CSc2nnc(C3CCCCC3)n2N)cc1OC	21.9
CC(=O)Oc1ccc(/C=C(\NC(=O)c2ccco2)C(=O)NCc2ccco2)cc1	-52
Cc1ccc(S(=O)(=O)NCCCn2ccnc2)cc1C(=O)NC(C)C	-1.56
